In PubChem BioAssay AID1963320 (National Center for Advancing Translational Sciences (NCATS), 2024):
Out of some 1,300 compounds screened, about 560 (43%) were called active. So high a share suggests a set chosen from earlier hits. The shares of active, inactive and inconclusive entries below differ from those in the screen. The call rests on the fitted dose curve; in most records, active means well fitted inhibition curve with a large enough effect; inconclusive means small, poorly fitted or top-dose-only effect; inactive means flat fitted curve, though single readings scatter. Potencies of inconclusive entries are doubtful fits and often do not repeat.

What follows are compounds tested against Luciferin 4-monooxygenase (Photinus pyralis) (UniProt P08659) (assay: Firefly luciferase (FLuc-C-HiBiT) enzymatic inhibition screen - Functional assay). Conditions: purified FLuc-C-HiBiT enzyme, luciferin luminescence; series mostly up to 32.7 µM; activity change, negative = inhibition: at the top concentration.
Chain of UniProt P08659 (P08659 whole entry, looked up): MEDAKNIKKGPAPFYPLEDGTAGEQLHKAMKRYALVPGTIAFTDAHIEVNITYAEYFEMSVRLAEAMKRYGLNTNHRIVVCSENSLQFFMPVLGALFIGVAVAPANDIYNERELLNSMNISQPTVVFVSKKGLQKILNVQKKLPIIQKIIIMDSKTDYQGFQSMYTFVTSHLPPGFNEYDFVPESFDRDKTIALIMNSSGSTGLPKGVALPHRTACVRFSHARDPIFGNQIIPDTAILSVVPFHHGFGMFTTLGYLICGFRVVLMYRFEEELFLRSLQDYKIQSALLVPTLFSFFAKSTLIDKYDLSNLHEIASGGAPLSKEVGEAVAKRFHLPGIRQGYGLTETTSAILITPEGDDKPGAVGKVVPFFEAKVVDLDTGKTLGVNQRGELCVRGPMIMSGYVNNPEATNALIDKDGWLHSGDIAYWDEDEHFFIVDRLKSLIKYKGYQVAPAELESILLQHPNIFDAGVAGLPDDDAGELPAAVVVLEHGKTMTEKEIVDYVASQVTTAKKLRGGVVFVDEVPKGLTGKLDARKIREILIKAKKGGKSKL
How it was run: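 With 10 uM ATP present, 10 nM FLuc-C-HiBiT enzyme sits with compounds for >30 min at room temperature away from light. Substrate D-luciferin is added to 10 uM (KM), and emitted light is captured after 5-10 min by CCD camera with 10 s exposure.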
Further: nearly all actives have a fitted effect of over 70% in size.
On the % scale 0 is the no-effect control and ±100 the full control effect; potency means the concentration at half of the fitted maximal effect; tags describe the fitted curve by direction and shape.

SMILES	Potency	activity change, negative = inhibition
CCOc1ccc(C(=O)Nc2cc(-c3nc4cc(OC)ccc4o3)ccc2C)cc1[N+](=O)[O-]	inconclusive: 7.85 µM [inhibitor, partial curve]	
CC(C)c1ccc(NC(=O)O[C@@H]2CO[C@H]3[C@@H]2OC[C@@H]3NS(=O)(=O)c2cccs2)cc1	inconclusive: 8.81 µM [inhibitor, partial curve, poor fit]	
Cc1ccc(CN2CCc3nc(C(=O)Nc4ccccc4)oc3CC2)cc1	inconclusive: 16.1 µM [inhibitor, partial curve, poor fit]	
COc1ccc(-n2nc(C)c([C@@H]3C=C[C@@H](NC(=O)NCc4ccccc4)C3)c2C)cc1	active: 6.4 µM	
O=C(Nc1cccc(-c2ccc(N3CCOCC3)nn2)c1)Nc1ccccc1F	active: 2.79 µM	
COc1cc(F)ccc1-c1ccc(COc2ccc3c(cnn3CCC(=O)O)c2)cc1	inconclusive: 18 µM [inhibitor, partial curve]	
COc1ccc(-c2cnc(Nc3cccc(N[S+](C)(=O)[O-])c3)c3c2CCO3)cn1	inconclusive: 18 µM [inhibitor, partial curve]	
Cc1c(CN2CCOc3c(O)cc(-c4nc5ccccc5s4)cc3C2)cnn1C		inactive: -4.67%
O=C1NCCCc2[nH]c(-c3cc(-c4cccc(F)c4)no3)nc21	active: 7 µM	
CCCN1CCc2nc(C(=O)Nc3ccccc3)oc2CC1	inconclusive: 18 µM [inhibitor, partial curve]	
CSc1ccc(-c2ccc3c(c2)C(=O)N2CC[C@H](NC(=O)c4cccs4)[C@H]2C(=O)N3)cc1	inconclusive: 12.4 µM [inhibitor, partial curve]	
O=C(Nc1ccc2c(c1)OCCO2)N1CCCC(c2nc(C3CCOCC3)no2)C1 (centres undefined)	inconclusive: 11.1 µM [inhibitor, partial curve]	
CN(CCc1cn[nH]c1)c1ccc(-c2nc(-c3ccccc3F)no2)cn1	active: 3.13 µM	
Cc1ccc(NC(=O)c2ccc(CN3C(=O)NC4(CCOCC4)C3=O)cc2)cc1C	inconclusive: 11.1 µM [inhibitor, partial curve]	
O=C(NCc1ccncc1)C1CCN(C(=O)c2ncn3c2COC(c2ccccc2)C3)CC1 (centres undefined)	active: 1.76 µM	
Cc1cccc(-n2ncc3c(N4CCCC(C)C4)ncnc32)c1 (centres undefined)	active: 0.7 µM	
Cc1ccc2nc(-c3ccc(NC(=O)c4ccc(S(C)(=O)=O)cc4)cc3)sc2c1		inactive: -0.547%
Cc1c(C(=O)Nc2cccc(-c3nc4ccccc4s3)c2)oc2ccccc12		inactive: -25.7%
Cc1ccc(C2=NC3(CCN(C(=O)c4cccc(N(C)C)c4)CC3)ON2)cc1	inconclusive: 9.89 µM [inhibitor, partial curve]	
NC(=O)c1cccc(-c2cc3c(cn2)CN(Cc2ccccc2)CCN3)c1	inconclusive: 20.2 µM [inhibitor, partial curve]	
CCOc1ccc(Nc2nc(-c3ccccc3)no2)cc1	active: 4.95 µM	
C=CCNC(=O)c1cccc2c(C)nnn12		inactive: -13.2% [at 65.7 µM]

SMILES	Potency	activity change, negative = inhibition
COc1ccc(NC(=O)Nc2cccc(-c3ccc(N4CCOCC4)nn3)c2)cc1F	active: 0.881 µM	
CC(=O)N1CCNc2cc(Nc3cccc(N(C)C)c3)ncc2C1	active: 16.1 µM	
CSc1ccc(NC(=O)c2ccc3c(c2)N(C)C2CCCN2C3=O)cc1 (centres undefined)	inconclusive: 12.4 µM [inhibitor, partial curve]	
O=C(Nc1nc2ccccc2s1)c1ccc2c(c1)OCCN(CCC(F)(F)F)C2	inconclusive: 20.2 µM [inhibitor, partial curve]	
O=C(Nc1cc(-c2nc3ccccc3s2)ccc1Cl)c1cc2ccccc2o1		inactive: -1.16%
COc1ccc2c(C)c(-c3nc(C4CCOC4)no3)oc2c1 (centres undefined)		inactive: -18.1%
CC(Cc1cnccn1)Nc1ccc(-c2nc(-c3cccc(Cl)c3)no2)cn1 (centres undefined)	inconclusive: 11.1 µM [inhibitor, partial curve]	
O=C(O)CCn1ncc2cc(OCc3ccc(-c4cccc(CO)c4)cc3)ccc21	inconclusive: 16.1 µM [inhibitor, partial curve]	
Clc1cccc(-c2nc(-c3ccccn3)no2)c1	active: 0.989 µM	
O=C(Nc1ccc([C@H]2OCC(=O)N(Cc3ccncc3)[C@@H]2CO)cc1)c1ccc(C(F)(F)F)cc1	inconclusive: 11.1 µM [inhibitor, partial curve]	
COC(=O)c1c(-c2cccs2)csc1NC(=O)c1ccc(C)cc1	inconclusive: 15.7 µM [inhibitor, partial curve]	
O=C(Nc1cccnc1)c1cc(-c2ccc(Cl)cc2)on1	inconclusive: 2.48 µM [inhibitor, full curve]	
O=C(NCc1ccc2c(c1)OCO2)C1CCN(c2cc(C(F)(F)F)ncn2)CC1	inconclusive: 11.1 µM [inhibitor, partial curve]	
Cc1ccc(-c2noc(-c3ccccc3Br)n2)cc1	active: 1.57 µM	
CCN1c2cc(C(=O)Nc3ccc(N(C)C)cc3)ccc2C(=O)N2CCCCC21 (centres undefined)	inconclusive: 12.4 µM [inhibitor, partial curve]	
Cc1ccc(C)c(N2CCN(C(=O)C3CCN(c4nc(-c5ccc(C(C)C)cc5)no4)CC3)CC2)c1	inconclusive: 11.1 µM [inhibitor, partial curve]	
COc1ccc(C(=O)NC2CCCN(c3cc(-c4ccc(Cl)cc4)[nH]n3)C2)cc1OC (centres undefined)	active: 6.24 µM	
O=C(Nc1ccccc1)N1CCc2nc(C3CC3)nc(-c3ccc(Cl)cc3)c2C1		inactive: -3.22%
O=C(Nc1cccnc1)c1nc2c(o1)CCN(Cc1ccc(O)cc1)CC2	inconclusive: 18 µM [inhibitor, partial curve]	
CN(CCc1ccccn1)c1ccc(-c2nc(COc3ccccc3)no2)cn1	inconclusive: 11.1 µM [inhibitor, partial curve]	
Nc1nc2c([nH]c(=O)n2[C@H]2C[C@H](O)[C@@H](CO)O2)c(=O)[nH]1		inactive: 7.04%
CNC(=O)c1cccc(-c2cnc(Nc3ccc(Cl)cn3)c3c2CCO3)c1	inconclusive: 10.1 µM [inhibitor, partial curve]	
